Measurements taken from the supplement of paper PMC8728848.
The other results are listed elsewhere or left out.

Experiments:
Assay in all cases: glycan array binding signal (z-score within array); higher = stronger binding
Conditions in all cases: glycan notation: IUPAC condensed, linker removed
Fuc(b1-3)GlcNAc = biological target: Fuc(b1-3)GlcNAc
Procedure, shortened: (§1)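 From the Consortium for Functional Glycomics database, 3228 arrays were curated, keeping only those whose protein sequence was available. Binding is given as a within-array Z-score averaged across arrays sharing a protein sequence and across linkers. Negative Z-scores can be read as non-binding.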

Gal(a1-2)Gal = biological target: Gal(a1-2)Gal
Procedure, shortened: as §1

Gal(a1-3)Gal = biological target: Gal(a1-3)Gal
Procedure, shortened: as §1

Gal(a1-3)Gal(b1-3)GlcNAc = biological target: Gal(a1-3)Gal(b1-3)GlcNAc
Procedure, shortened: as §1

Gal(a1-3)Gal(b1-4)Glc = biological target: Gal(a1-3)Gal(b1-4)Glc
Procedure, shortened: as §1

Gal(a1-3)Gal(b1-4)GlcNAc = biological target: Gal(a1-3)Gal(b1-4)GlcNAc
Procedure, shortened: as §1

[1] = biological target: Gal(a1-3)Gal(b1-4)[Fuc(a1-3)]GlcNAc
Procedure, shortened: as §1

[2] = biological target: Gal(a1-3)Gal(b1-4)[Fuc(a1-3)]GlcNAc(b1-2)Man(a1-3)[Gal(a1-3)Gal(b1-4)[Fuc(a1-3)]GlcNAc(b1-2)Man(a1-6)]Man(b1-4)GlcNAc(b1-4)GlcNAc
Procedure, shortened: as §1

Gal(a1-3)GalNAc = biological target: Gal(a1-3)GalNAc
Procedure, shortened: as §1

[3] = biological target: Gal(a1-3)[Gal(a1-4)]Gal(b1-4)GlcNAc
Procedure, shortened: as §1

Gal(a1-4)Gal(b1-4)Glc = biological target: Gal(a1-4)Gal(b1-4)Glc
Procedure, shortened: as §1

Gal(a1-4)Gal(b1-4)GlcNAc = biological target: Gal(a1-4)Gal(b1-4)GlcNAc
Procedure, shortened: as §1

[4] = biological target: Gal(a1-4)Gal(b1-4)GlcNAc(b1-3)Gal(b1-4)Glc
Procedure, shortened: as §1

Gal(a1-4)GlcNAc = biological target: Gal(a1-4)GlcNAc
Procedure, shortened: as §1

Gal(a1-6)Glc = biological target: Gal(a1-6)Glc
Procedure, shortened: as §1

Gal(b1-2)Gal = biological target: Gal(b1-2)Gal
Procedure, shortened: as §1

Gal(b1-3)Gal = biological target: Gal(b1-3)Gal
Procedure, shortened: as §1

Gal(b1-3)Gal(b1-4)GlcNAc = biological target: Gal(b1-3)Gal(b1-4)GlcNAc
Procedure, shortened: as §1

[5] = biological target: Gal(b1-3)Gal(b1-4)GlcNAc(b1-2)Man(a1-3)[Gal(b1-3)Gal(b1-4)GlcNAc(b1-2)Man(a1-6)]Man(b1-4)GlcNAc(b1-4)GlcNAc
Procedure, shortened: as §1

Gal(b1-3)GalNAc = biological target: Gal(b1-3)GalNAc
Procedure, shortened: as §1

[6] = biological target: Gal(b1-3)GalNAc(a1-3)[Fuc(a1-2)]Gal(b1-4)Glc
Procedure, shortened: as §1

[7] = biological target: Gal(b1-3)GalNAc(a1-3)[Fuc(a1-2)]Gal(b1-4)GlcNAc
Procedure, shortened: as §1

[8] = biological target: Gal(b1-3)GalNAc(b1-3)Gal(a1-4)Gal(b1-4)Glc
Procedure, shortened: as §1

[9] = biological target: Gal(b1-3)GalNAc(b1-4)Gal(b1-4)Glc
Procedure, shortened: as §1

[10] = biological target: Gal(b1-3)GalNAc(b1-4)[Neu5Ac(a2-3)]Gal(b1-4)Glc
Procedure, shortened: as §1

Gal(b1-3)GlcNAc = biological target: Gal(b1-3)GlcNAc
Procedure, shortened: as §1

[11] = biological target: Gal(b1-3)GlcNAc(b1-2)Man(a1-3)[Gal(b1-3)GlcNAc(b1-2)Man(a1-6)]Man(b1-4)GlcNAc(b1-4)GlcNAc
Procedure, shortened: as §1

[12] = biological target: Gal(b1-3)GlcNAc(b1-2)Man(a1-3)[Gal(b1-3)GlcNAc(b1-2)Man(a1-6)]Man(b1-4)GlcNAc(b1-4)[Fuc(a1-6)]GlcNAc
Procedure, shortened: as §1

[13] = biological target: Gal(b1-3)GlcNAc(b1-3)Gal(b1-3)GlcNAc
Procedure, shortened: as §1

[14] = biological target: Gal(b1-3)GlcNAc(b1-3)Gal(b1-4)Glc
Procedure, shortened: as §1

[15] = biological target: Gal(b1-3)GlcNAc(b1-3)Gal(b1-4)GlcNAc
Procedure, shortened: as §1

[16] = biological target: Gal(b1-3)[Fuc(a1-4)]GlcNAc
Procedure, shortened: as §1

[17] = biological target: Gal(b1-3)[Fuc(a1-4)]GlcNAc(b1-2)Man(a1-3)[Gal(b1-3)[Fuc(a1-4)]GlcNAc(b1-2)Man(a1-6)]Man(b1-4)GlcNAc(b1-4)GlcNAc
Procedure, shortened: as §1

[18] = biological target: Gal(b1-3)[Fuc(a1-4)]GlcNAc(b1-2)Man(a1-3)[Gal(b1-3)[Fuc(a1-4)]GlcNAc(b1-2)Man(a1-6)]Man(b1-4)GlcNAc(b1-4)[Fuc(a1-6)]GlcNAc
Procedure, shortened: as §1

[19] = biological target: Gal(b1-3)[Fuc(a1-4)]GlcNAc(b1-3)Gal(b1-3)[Fuc(a1-4)]GlcNAc
Procedure, shortened: as §1

[20] = biological target: Gal(b1-3)[Fuc(a1-4)]GlcNAc(b1-3)Gal(b1-4)GlcNAc
Procedure, shortened: as §1

[21] = biological target: Gal(b1-3)[Fuc(a1-4)]GlcNAc(b1-3)Gal(b1-4)[Fuc(a1-3)]GlcNAc
Procedure, shortened: as §1

[22] = biological target: Gal(b1-3)[GlcNAc(b1-6)]GalNAc
Procedure, shortened: as §1

[23] = biological target: Gal(b1-3)[Neu5Ac(a2-6)]GalNAc
Procedure, shortened: as §1

[24] = biological target: Gal(b1-3)[Neu5Ac(a2-6)]GlcNAc(b1-6)Gal(b1-4)Glc
Procedure, shortened: as §1

[25] = biological target: Gal(b1-3)[Neu5Ac(b2-6)]GalNAc
Procedure, shortened: as §1

[26] = biological target: Gal(b1-4)GalNAc(a1-3)[Fuc(a1-2)]Gal(b1-4)GlcNAc
Procedure, shortened: as §1

[27] = biological target: Gal(b1-4)GalNAc(b1-3)[Fuc(a1-2)]Gal(b1-4)GlcNAc
Procedure, shortened: as §1

Gal(b1-4)Glc = biological target: Gal(b1-4)Glc
Procedure, shortened: as §1

Gal(b1-4)Glc6S = biological target: Gal(b1-4)Glc6S
Procedure, shortened: as §1

B1: SSA (Sclerotinia sclerotiorum), A7XUK7 (protein)
chain: MGFKGVGTYEIVPYQAPSLNLNAWEGKLEPGAVVRTYTRGDKPSDNAKWQVALVAGSGDSAEYLIINVHSGYFLTATKENHIVSTPQISPTDPSARWTIKPATTHQYEVFTINNKVSELGQLTVKDYSTHSGADVLSASAKTADNQKWYFDAK
glycan array binding signal (z-score) (Fuc(b1-3)GlcNAc): -0.391 | glycan array binding signal (z-score) (Gal(a1-2)Gal): -0.226 | glycan array binding signal (z-score) (Gal(a1-3)Gal): -0.271 | glycan array binding signal (z-score) (Gal(a1-3)Gal(b1-3)GlcNAc): -0.253 | glycan array binding signal (z-score) (Gal(a1-3)Gal(b1-4)Glc): -0.277 | glycan array binding signal (z-score) (Gal(a1-3)Gal(b1-4)GlcNAc): -0.205 | glycan array binding signal (z-score) [1]: -0.238 | glycan array binding signal (z-score) [2]: -0.194 | glycan array binding signal (z-score) (Gal(a1-3)GalNAc): 0.053 | glycan array binding signal (z-score) [3]: 0.665 | glycan array binding signal (z-score) (Gal(a1-4)Gal(b1-4)Glc): -0.207 | glycan array binding signal (z-score) (Gal(a1-4)Gal(b1-4)GlcNAc): 0.013 | glycan array binding signal (z-score) [4]: -0.048 | glycan array binding signal (z-score) (Gal(a1-4)GlcNAc): 0.344 | glycan array binding signal (z-score) (Gal(a1-6)Glc): -0.254 | glycan array binding signal (z-score) (Gal(b1-2)Gal): -0.288 | glycan array binding signal (z-score) (Gal(b1-3)Gal): 0.018 | glycan array binding signal (z-score) (Gal(b1-3)Gal(b1-4)GlcNAc): -0.193 | glycan array binding signal (z-score) [5]: 0.038 | glycan array binding signal (z-score) (Gal(b1-3)GalNAc): 0.014 | glycan array binding signal (z-score) [6]: -0.365 | glycan array binding signal (z-score) [7]: -0.194 | glycan array binding signal (z-score) [8]: 0.772 | glycan array binding signal (z-score) [9]: 0.6 | glycan array binding signal (z-score) [10]: 0.293 | glycan array binding signal (z-score) (Gal(b1-3)GlcNAc): -0.364 | glycan array binding signal (z-score) [11]: 1.44 | glycan array binding signal (z-score) [12]: 0.103 | glycan array binding signal (z-score) [13]: -0.23 | glycan array binding signal (z-score) [14]: -0.28 | glycan array binding signal (z-score) [15]: -0.249 | glycan array binding signal (z-score) [16]: -0.377 | glycan array binding signal (z-score) [17]: -0.041 | glycan array binding signal (z-score) [18]: -0.135 | glycan array binding signal (z-score) [19]: -0.223 | glycan array binding signal (z-score) [20]: -0.381 | glycan array binding signal (z-score) [21]: -0.368 | glycan array binding signal (z-score) [22]: -0.1 | glycan array binding signal (z-score) [23]: -0.063 | glycan array binding signal (z-score) [24]: -0.29 | glycan array binding signal (z-score) [25]: 0.236 | glycan array binding signal (z-score) [26]: -0.376 | glycan array binding signal (z-score) [27]: -0.339 | glycan array binding signal (z-score) (Gal(b1-4)Glc): -0.315 | glycan array binding signal (z-score) (Gal(b1-4)Glc6S): -0.087
